From PubChem BioAssay AID1346428 (National Center for Advancing Translational Sciences (NCATS), 2018) come the findings set out here.

Where “and” joins values, the source holds several entries; their conditions need not be identical. Equal entries are not always repeated. The campaign covered roughly 48,000 compounds. About 1,200 (2.5%) were called active. Not shown: some 2% with an inconclusive outcome.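 How the source made its calls: active means activation of at least 60% and not above a set upper limit (about 1 call in 100 departs from these limits); inconclusive means activation of 40% to 60%, or above that upper limit; inactive means activation under 40%.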 This is one part of the list.

This experiment deals with Probable G-protein coupled receptor 32 (Homo sapiens) (UniProt O75388). The experiment is described as follows: qHTS for Agonists of Human Resolvin D1 Receptor DRV1. Further: 0% is about no effect. The note with it: CHO-K1 GPR32 beta-arrestin PathHunter luminescence, 90 min; at 76.9 µM; hits give high values; zero percent set by DMSO-only wells. Put shortly: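 Engineered CHO-K1 line co-expressing GPR32-ProLink and EA-beta-arrestin. Compound treatment lasted 90 min at 37 °C. Luminescence was recorded after 1 h with substrate at ambient temperature, relative to DMSO basal wells.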
Chain of UniProt O75388 (O75388 whole entry, looked up): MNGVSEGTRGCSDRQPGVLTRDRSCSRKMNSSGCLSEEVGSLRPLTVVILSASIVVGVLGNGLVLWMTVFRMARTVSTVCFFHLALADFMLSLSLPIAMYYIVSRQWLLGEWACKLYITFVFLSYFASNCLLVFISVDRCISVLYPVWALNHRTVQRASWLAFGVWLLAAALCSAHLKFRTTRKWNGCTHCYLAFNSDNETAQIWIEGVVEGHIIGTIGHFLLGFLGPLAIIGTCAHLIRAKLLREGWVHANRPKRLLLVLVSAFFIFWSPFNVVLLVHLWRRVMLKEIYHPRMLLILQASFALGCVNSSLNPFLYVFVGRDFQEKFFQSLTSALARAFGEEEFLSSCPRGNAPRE
With `Cc1n[nH]c(C)c1CCc1nc2c3ccccc3nc(SCC(=O)Nc3ccc(F)cc3)n2n1`, the activation was active: 72%.
Next, `COC(=O)c1scc(-c2ccc(C)cc2)c1S(=O)(=O)Nc1cccc(Cl)c1C`: inactive: -15.6%; `COc1cccc(N2CCN(C(=O)C3CCN(S(=O)(=O)c4cn(C)cn4)CC3)CC2)c1`: inactive: 1.61%; `CCOCCn1c(=O)c2c(nc3n2CCN3c2ccc(C)c(C)c2)n(C)c1=O`: inactive: -11.4%.
Under `CC1CCCCN1C(=O)CSc1c2c(nc3cc(Cl)ccc13)CCCC2` (stereo not given) stands inactive: -19.2%.
On to `Cc1cc2c(cc1S(=O)(=O)NCc1ccccc1Cl)OCC(=O)N2`, for which the activation was inactive: 3.26%.
Next, `Cc1ccc(-n2ncc3c(Nc4cccc(C(F)(F)F)c4)ncnc32)cc1C`: active: 93.7%.
Under `COc1cccc(-c2nc(CS(=O)(=O)CC(=O)NCCc3ccc(Cl)cc3)c(C)o2)c1` stands inactive: 2.42%; under `Cc1cc(C)cc(NC(=O)COCc2cc(-c3ccc4c(c3)OCO4)on2)c1`, inactive: -17.1%.
On to `COc1ccc(OC)c(NC(=O)Cn2cnc3onc(-c4ccc(Cl)cc4)c3c2=O)c1`, for which the activation is inactive: 49.2%.
As to `COc1ccc(NC(=O)CN(C)S(=O)(=O)c2ccc3c(c2)c(=O)n(C)c(=O)n3C)cc1`, the activation is inactive: 2.74%.
Consider `NS(=O)(=O)c1ccc(NC(=O)c2csnn2)cc1`, for which the activation is inactive: 2.58%.
Next, `CC(C)c1ccc(NC(=O)c2cnc3sc(N4CCOCC4)nn3c2=O)cc1`: inactive: -6.97%.
With `Cc1ccc(C(=O)NCC(c2ccco2)S(=O)(=O)c2ccc(Cl)cc2)cc1C` (stereo not given), the activation was inactive: -9.5%.
Next, `CCCCNC(=O)c1cn(C)c2ccc(S(=O)(=O)N3CCCC3)cc2c1=O`: inactive: -2.75%; `COc1ccc(OCC2c3cc(OC)c(OC)cc3CCN2C(=O)c2c(F)cccc2F)cc1` (stereo not given): inactive: -2.6%.
Under `COc1ccc(-c2nc3ccc(Cl)cn3c2Nc2ccc(C)cc2)cc1` stands inactive: -5.61%.
For `CCc1ccc(-n2nc(CO)c(C(=O)NCc3cccs3)n2)cc1`, the activation is inactive: -5.59%.
Next, `COc1cc(OC)c(NC(=O)Cn2cnc3sc(C)c(S(=O)(=O)N4CCC(C)CC4)c3c2=O)cc1Cl`: inactive: 2.98%.
Regarding `COc1ccc(N2CC(NC(=O)C(=O)c3c(C)[nH]c4ccccc34)CC2=O)cc1` (stereo not given), the activation is inactive: -17.6%.
Under `Cc1ccc(NC(=O)CCn2c(=O)c3cccn3c3ccccc32)cc1Cl` stands inactive: -23.4%; under `O=C(CSc1nc(=O)n(Cc2ccco2)c2c1CCC2)NCc1ccc(Cl)cc1`, inactive: -1.69%.
`Cc1cc(NC(=O)Nc2nnc(N3CCCCC3)s2)ccc1Br`: the activation is inactive: 5.79%.
Under `Cc1ccc(C(=O)N2CCN(Cc3cc(=O)n4nc(-c5ccccc5)sc4n3)CC2)cc1` stands inactive: -0.346%.
Take `Cc1cc(C)c2nc(N(Cc3cccnc3)C(=O)Cc3ccccc3)sc2c1`: the activation was inactive: -0.0918%.
Take `Cc1cc(C)n(-c2nc3ccccc3nc2Nc2cc(Cl)ccc2C)n1`: the activation was inactive: -5.33%.
For the compound `COc1ccccc1CNC(=O)CSc1nc(=O)[nH]c2c1CCCC2`, the activation is inactive: -9.47%.
Under `CCN(Cc1ccccc1)C(=O)Cn1c(=O)n(-c2ccc(Cl)c(Cl)c2)c(=O)c2c(C)c(C(=O)N(C)C)sc21` stands inactive: -14.3%; under `Cc1ccc(-c2ccc(CCC(=O)O)n2-c2cccc(C)c2C)cc1`, inactive: 4.89%.
Under `COc1ccc(NC(=O)c2c(C)oc3ccc(O)c(CN4CCCCCC4)c23)cc1` stands inactive: 24.5%.
Next, `Cc1ccc(C)c(N2CCN(C(=O)CN3C(=O)COc4ccc(S(=O)(=O)N5CCC(C)CC5)cc43)CC2)c1`: inactive: -19.1%; `CCOc1ccc(Br)cc1S(=O)(=O)Nc1cccc(-c2ccc(OC)nn2)c1`: inactive: 9.94%; `O=c1[nH]c(=O)n([C@H]2C[C@H](O)[C@@H](CO)O2)cc1Br`: inactive: -4.65% and inactive: 7.58%.
Consider `Cc1ccc(N2CCN(S(=O)(=O)c3ccc(-n4cnnn4)cc3)CC2)c(C)c1`, for which the activation was inactive: -4.48%.
On to `COc1ccc(-n2c(=O)c3c4c(sc3n(Cc3ccc(C(C)(C)C)cc3)c2=O)CCC4)c(OC)c1`, for which the activation is inactive: 26.2%.
Under `CCn1nnc2cc(C(=O)Nc3ccc(OC)cc3)ccc21` stands inactive: 34.9%; under `Cc1ccc(Cl)cc1N1CCN(C(=O)c2ccc3c(c2)N(Cc2ccccc2)CCS3)CC1`, inactive: -8.12%; under `Cc1[nH]cnc1-c1ccc(Cl)cc1`, inactive: 22.3%.
Under `Cc1cn2c(=O)cc(COC(=O)c3ccc(NC(=O)C(C)Oc4ccccc4)cc3)nc2s1` (stereo not given) stands inactive: -10.9%; under `CCOCCCNC(=O)c1c(NC(=O)c2nc(SC)ncc2Cl)sc2c1CCCC2`, inactive: -13.9%.
Next, `COc1cc(NC(C)CCCN)c2ncccc2c1` (stereo not given): inactive: 9.48%; `COc1ccc(CCNC(=O)c2cc(=O)[nH]c3ccc(S(=O)(=O)N4CCCCC4C)cc23)cc1OC` (stereo not given): inactive: -15.4%; `CCOC(=O)c1c(N)n(-c2cc(C)cc(C)c2)c2nc3ccccc3nc12`: inactive: -6.05%.
In the case of `COc1cccc(NC(=O)Cc2csc(COc3cccc(C)c3)n2)c1`, the activation was inactive: -9.8%.
Under `Fc1ccc(Nc2c(-c3ccccn3)nc3ccc(Cl)cn23)cc1` stands inactive: -26.5%; under `O=C(Nc1cc(Cl)cc(Cl)c1)c1cc(S(=O)(=O)N2CCC3(CC2)OCCO3)ccc1F`, inactive: -22.8%.
Under `O=C(NCCc1ccccc1)c1nn(-c2ccccc2Cl)nc1CO` stands inactive: -8.11%; under `COc1ccc(OC)c(NC(=O)CCNC(=O)Cn2cnc3ccccc3c2=O)c1`, inactive: 15.8%; under `Cc1ccc(C)c(-n2nnc(C(=O)Nc3ccc(Br)cc3)c2C)c1`, inactive: 26%.
Turning to `CCCCC1(COC(=O)CCC(=O)O)C(=O)N(c2ccccc2)N(c2ccccc2)C1=O`, the activation is inactive: -2.69%.
Next, `COCCn1c(C)cc(O)c(C(c2ccc(OC)cc2)N2CCN(c3ccccc3)CC2)c1=O` (stereo not given): inactive: -9.11%; `CCc1cccc(C)c1NC(=O)c1cnn(-c2ccc(OC)cc2)c1C1CCN(C(=O)OC(C)(C)C)CC1`: inactive: -17.6%.
Under `COc1ccc(NC(=O)c2nc(-c3ccc(C)cc3)n3c2CCCCC3)c(OC)c1` stands inactive: 6.91%; under `CCOCCc1nn2c(=O)cc(COC(=O)c3ccc(NC(=O)C(C)(C)C)cc3)nc2s1`, inactive: 12.6%.
Under `CCOC(=O)c1ccccc1NC(=O)c1cnc(N2CCOCC2)c2ccccc12` stands inactive: -23.4%.
Consider `Cc1ccc(SCC(=O)Nc2ccc3oc(-c4ccccc4F)nc3c2)cc1`, for which the activation was inactive: -9.21%.
Next, `CCN(CC)c1nn2c(=O)c(C(=O)NCc3ccc(N(C)C)cc3)cnc2s1`: inactive: -0.636%; `COc1ccc(CNC(=O)Cn2c(-c3ccccc3)cc(C(C)=O)c2C)cc1OC`: inactive: -10.6%.
Under `COc1ccc(N2CC(NC(=O)/C=C\c3ccccc3)CC2=O)cc1OC` (stereo not given) stands inactive: 0.173%; under `Cc1nn(C)c(C)c1CCNC(=O)Nc1ccccc1C(F)(F)F`, inactive: -5.05%; under `O=C(NCc1cccs1)c1ccc(CSc2nc3ccncc3n2Cc2ccccc2F)cc1`, inactive: -9.52%.
For `CN(Cc1ccco1)S(=O)(=O)c1nnc(NC(=O)c2ccccc2Cl)s1`, the activation was inactive: 10.9%.
Under `CCC(=O)N1CCc2cc(S(=O)(=O)NC(C(=O)NCCc3cccc(C)c3)C(C)C)ccc21` (stereo not given) stands inactive: -4.79%.
Under `COc1cc(Cl)c(C)cc1Nc1nc2ccccc2n2cnnc12` stands inactive: 3.48%.
Next, `COc1ccc(C(=O)CCC(=O)Nc2ccc(C)c(Cl)c2)cc1`: inactive: -18.7%; `CC1CCCN(CCCNC(=O)c2cc3c(Cl)nc4ccccc4c3s2)C1` (stereo not given): inactive: -2.55%; `CCc1ccccc1N(C)C(=O)c1sc2nc3n(c(=O)c2c1C)CCCCC3`: inactive: -4.14%.
`O=C(NCCc1csc(-c2ccc(F)cc2)n1)c1cccc(F)c1`: the activation was active: 65.7%.
Next, `Cc1ccc(C2c3[nH]c4ccccc4c3CCN2C(=O)CSCc2ccc(F)cc2)cc1` (stereo not given): inactive: -33.9%.
Next, `COc1ccccc1CNC(=O)C1CCN(S(=O)(=O)c2cn(C)cn2)CC1`: inactive: -4.58%; `CCCCCn1c(=O)[nH]c2cc(C(=O)NC(C)CC)ccc2c1=O` (stereo not given): inactive: 22.9%.
Next, `COc1ccc(CCNC(=O)c2cc(=O)c3ccc(C)cc3o2)cc1OC`: inactive: 1.07%.
Consider `COCCn1c(=O)[nH]c2cc(C(=O)Nc3ccc(OC)cc3)ccc2c1=O`, for which the activation was inactive: 10.5%.
Next, `COc1ccc(C(=O)Nc2ccc3oc(-c4cccnc4)nc3c2)cc1OC`: inactive: -23.7%; `CCOc1ccc(CNC(=O)c2ccc3c(c2)nc2n3CCCCC2)cc1`: inactive: -3.62%.
Next, `CC(C)Oc1ccc(CNC(=O)C2CCN(Cc3cc4ccccc4n3Cc3ccccc3)CC2)cc1`: inactive: -8.09%.
Next, `Cc1ccc2c(c1)cc(C(=O)NCc1ccccc1C)n2C`: inactive: 4.54%.
`CCc1cnc2c(c1SCC(=O)Nc1ccc(C(=O)OC)cc1)c(=O)n(C)c(=O)n2C`: the activation was inactive: 1.36%.
Under `CCn1c2ccccc2c2cc(NC(=O)COc3cc(C)ccc3C)ccc21` stands inactive: 11.1%.
Under `Cc1cccc(Cn2c(COc3ccccc3)nc3ccccc32)c1` stands inactive: -56.1%; under `O=C(COC(=O)c1cccc(NC(=O)c2ccc(Br)cc2)c1)c1ccc(Cl)cc1`, inactive: 26.3%.
Next, `CC(C)(C)c1ccc(OCCOCCn2c(-c3ccc(Cl)cc3)nc3ccccc3c2=O)cc1`: inactive: -7.55%; `O=C(/C=C/c1ccccc1)Nc1nc2n(n1)C(c1ccc(F)cc1)C=C(c1ccccc1)N2` (stereo not given): inactive: -18.3%.
Regarding `CC(C)Oc1ccc(CNC(=O)c2ccc(NC(=O)N3CC(C)Sc4ccccc43)cc2)cc1` (stereo not given), the activation was inactive: -18.7%.
Next, `Cc1cc(C)c(S(=O)(=O)NCC(c2ccco2)S(=O)(=O)c2cccs2)c(C)c1` (stereo not given): inactive: -24%.
